Reference: paper PMC4475061
Positions count from the first letter of the chain named. In names and notes the source's numbering stands. These are yes or no findings as the source states them, for the method shown. For part of these data: Binding seen in cells or lysates may run through a third protein. Some results given as binding are weak or reduced against the parent protein; the word gives no strength. For part of these data: Tags and fused reporters may be left off the sequences shown.

By UniProt entry, the sequences of proteins in these tests, tags left out.
UniProt Q9UQN3: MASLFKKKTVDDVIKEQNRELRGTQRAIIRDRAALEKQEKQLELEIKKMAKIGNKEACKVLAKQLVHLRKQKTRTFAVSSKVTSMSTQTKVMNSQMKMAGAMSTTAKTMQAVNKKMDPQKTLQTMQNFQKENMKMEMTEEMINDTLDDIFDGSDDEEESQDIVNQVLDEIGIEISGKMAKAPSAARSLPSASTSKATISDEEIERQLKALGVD

Experiments:
[1] = target: T1, CHMP2A fused to the Gal4 DNA-binding domain (human) (UniProt O43633); experiment: two-hybrid; yeast Y190; VP16 activation domain fusions (pHB18) against Gal4 DNA-binding domain fusions (pGBKT7); β-galactosidase activity in yeast extracts
T1 sequence: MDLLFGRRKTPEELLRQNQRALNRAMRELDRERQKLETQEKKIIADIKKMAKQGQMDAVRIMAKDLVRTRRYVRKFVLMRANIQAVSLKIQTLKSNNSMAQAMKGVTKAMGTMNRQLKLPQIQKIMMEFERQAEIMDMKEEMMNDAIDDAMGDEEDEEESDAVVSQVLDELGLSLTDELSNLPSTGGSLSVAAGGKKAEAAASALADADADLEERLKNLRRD

[2] = target: T2, CHMP1A fused to the Gal4 DNA-binding domain (human) (UniProt Q9HD42); experiment: as above
T2 sequence: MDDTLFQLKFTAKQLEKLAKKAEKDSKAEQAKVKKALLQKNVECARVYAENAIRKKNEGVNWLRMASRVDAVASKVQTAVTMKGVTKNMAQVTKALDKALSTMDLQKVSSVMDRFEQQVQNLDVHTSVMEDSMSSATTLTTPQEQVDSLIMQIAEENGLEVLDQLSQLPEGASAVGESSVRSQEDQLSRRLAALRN

[3] = target: T3, HA-CHMP2A (human) (UniProt O43633); experiment: co-IP; 293T cells expressing HA-ESCRT-III; α-HA and protein G-agarose, 4°C; endogenous ULK3 detected by α-ULK3 blot
T3 sequence: T1 sequence

[4] = target: HA-CHMP2B (human) (UniProt Q9UQN3); experiment: as above
[5] = target: T4, HA-CHMP1A (human) (UniProt Q9HD42); experiment: as above
T4 sequence: T2 sequence

[6] = target: T5, GST-ULK3 WT (human) (UniProt Q6PHR2); experiment: pull-down; 293T cells co-transfected with pCAGGS/GST fusions and HA- or YFP-tagged proteins; glutathione-sepharose 3 hr at 4°C; 150 mM NaCl, Triton X-100; Western blot
T5 sequence: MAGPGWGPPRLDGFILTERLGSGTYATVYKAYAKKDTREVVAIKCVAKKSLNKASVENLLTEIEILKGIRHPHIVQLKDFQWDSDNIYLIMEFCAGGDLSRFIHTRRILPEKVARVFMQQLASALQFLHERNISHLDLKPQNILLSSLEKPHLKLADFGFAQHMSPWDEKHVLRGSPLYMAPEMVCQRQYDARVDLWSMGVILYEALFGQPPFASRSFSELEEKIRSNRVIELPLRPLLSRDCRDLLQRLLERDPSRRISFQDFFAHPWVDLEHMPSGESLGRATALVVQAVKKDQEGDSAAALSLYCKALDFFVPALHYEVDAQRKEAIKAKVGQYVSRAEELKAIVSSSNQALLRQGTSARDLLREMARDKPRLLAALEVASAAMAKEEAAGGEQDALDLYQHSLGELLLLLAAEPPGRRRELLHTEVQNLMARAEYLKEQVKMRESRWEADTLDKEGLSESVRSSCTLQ

[7] = target: T6, GST-ULK3 M434D (human) (UniProt Q6PHR2); experiment: as above
T6 sequence: T5 sequence with M434D

[8] = target: T7, GST-ULK3 V338D (human) (UniProt Q6PHR2); experiment: as above
T7 sequence: T5 sequence with V338D

[9] = target: T8, One-strep-flag (OSF)-tagged ULK3, full-length (residues 1–472) (human) (UniProt Q6PHR2); experiment: pull-down; lysates of singly transfected 293T cells mixed; OSF-ULK3 bound to streptactin sepharose overnight at 4°C; one wash with 350 mM NaCl, three with 150 mM NaCl; α-Myc blot
T8 sequence: T5 sequence

B1: ULK3 fused to the VP16 activation domain (enzyme, UniProt Q6PHR2 1-472)
chain: T5 sequence
[1]
  binding: binds
[2]
  binding: binds

B2: endogenous ULK3 (enzyme, UniProt Q6PHR2 1-472)
chain: T5 sequence
[3]
  binding: binds
[4]
  binding: no binding
[5]
  binding: binds

B3: HA-CHMP1A (protein, UniProt Q9HD42 1-196)
chain: T2 sequence
[6]
  binding: binds
[7]
  binding: binds
[8]
  binding: binds

B4: ULK3 V338D fused to the VP16 activation domain (enzyme, UniProt Q6PHR2 1-472)
chain: T5 sequence with V338D
[2]
  binding: binds

B5: ULK3 M434D fused to the VP16 activation domain (enzyme, UniProt Q6PHR2 1-472)
chain: T5 sequence with M434D
[2]
  binding: binds

B6: CHMP1A-Myc (protein, UniProt Q9HD42 1-196)
chain: T2 sequence
[9]
  binding: binds

B7: CHMP2A-Myc (protein, UniProt O43633 1-222)
chain: T1 sequence
[9]
  binding: binds
